From the supplement of paper PMC8728848
The list shows a part of the results.

Tests used:
Experiment in all cases: glycan array binding signal (z-score within array); higher = stronger binding
Conditions in all cases: glycan notation: IUPAC condensed, linker removed
[1] = molecular target: Gal(b1-4)GlcNAc(b1-2)Man(a1-6)[Man(a1-3)]Man(b1-4)GlcNAc(b1-4)GlcNAc
Method in brief: (§1)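 Arrays were curated from the Consortium for Functional Glycomics database, 3228 in total, and kept only where the protein sequence was available. Binding is expressed as a within-array Z-score. This score was averaged across arrays of the same protein sequence at different concentrations or buffers and across linkers, and negative values can be read as non-binding.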

[2] = molecular target: Gal(b1-4)GlcNAc(b1-2)[Gal(b1-4)GlcNAc(b1-4)]Man(a1-3)[Gal(b1-4)GlcNAc(b1-2)Man(a1-6)]Man(b1-4)GlcNAc(b1-4)GlcNAc
Method in brief: as §1

[3] = molecular target: Gal(b1-4)GlcNAc(b1-2)[Gal(b1-4)GlcNAc(b1-4)]Man(a1-3)[Gal(b1-4)GlcNAc(b1-2)[Gal(b1-4)GlcNAc(b1-6)]Man(a1-6)]Man(b1-4)GlcNAc(b1-4)GlcNAc
Method in brief: as §1

[4] = molecular target: Gal(b1-4)GlcNAc(b1-2)[Gal(b1-4)GlcNAc(b1-4)]Man(a1-3)[GlcNAc(b1-4)][Gal(b1-4)GlcNAc(b1-2)Man(a1-6)]Man(b1-4)GlcNAc(b1-4)GlcNAc
Method in brief: as §1

[5] = molecular target: Gal(b1-4)GlcNAc(b1-2)[Gal(b1-4)GlcNAc(b1-4)]Man(a1-3)[GlcNAc(b1-4)][Gal(b1-4)GlcNAc(b1-2)[Gal(b1-4)GlcNAc(b1-6)]Man(a1-6)]Man(b1-4)GlcNAc(b1-4)GlcNAc
Method in brief: as §1

[6] = molecular target: Gal(b1-4)GlcNAc(b1-2)[Gal(b1-4)GlcNAc(b1-6)]Man(a1-6)[Gal(b1-4)GlcNAc(b1-2)Man(a1-3)]Man(b1-4)GlcNAc(b1-4)GlcNAc
Method in brief: as §1

[7] = molecular target: Gal(b1-4)GlcNAc(b1-2)[Gal(b1-4)GlcNAc(b1-6)]Man(a1-6)[Gal(b1-4)GlcNAc(b1-2)Man(a1-3)]Man(b1-4)GlcNAc(b1-4)[Fuc(a1-6)]GlcNAc
Method in brief: as §1

[8] = molecular target: Gal(b1-4)GlcNAc(b1-2)[Gal(b1-4)GlcNAc(b1-6)]Man(a1-6)[GlcNAc(b1-4)][Gal(b1-4)GlcNAc(b1-2)Man(a1-3)]Man(b1-4)GlcNAc(b1-4)GlcNAc
Method in brief: as §1

[9] = molecular target: Gal(b1-4)GlcNAc(b1-2)[Gal(b1-4)GlcNAc(b1-6)]Man(a1-6)[GlcNAc(b1-4)][Gal(b1-4)GlcNAc(b1-2)[Gal(b1-4)GlcNAc(b1-4)]Man(a1-3)]Man(b1-4)GlcNAc(b1-4)[Fuc(a1-6)]GlcNAc
Method in brief: as §1

[10] = molecular target: Gal(b1-4)GlcNAc(b1-3)Gal(b1-3)GalNAc
Method in brief: as §1

[11] = molecular target: Gal(b1-4)GlcNAc(b1-3)Gal(b1-3)GlcNAc
Method in brief: as §1

[12] = molecular target: Gal(b1-4)GlcNAc(b1-3)Gal(b1-4)Glc
Method in brief: as §1

[13] = molecular target: Gal(b1-4)GlcNAc(b1-3)Gal(b1-4)GlcNAc
Method in brief: as §1

[14] = molecular target: Gal(b1-4)GlcNAc(b1-3)Gal(b1-4)GlcNAc(b1-2)Man(a1-3)[Gal(b1-4)GlcNAc(b1-3)Gal(b1-4)GlcNAc(b1-2)Man(a1-6)]Man(b1-4)GlcNAc(b1-4)GlcNAc
Method in brief: as §1

[15] = molecular target: Gal(b1-4)GlcNAc(b1-3)Gal(b1-4)GlcNAc(b1-2)Man(a1-3)[Gal(b1-4)GlcNAc(b1-3)Gal(b1-4)GlcNAc(b1-2)Man(a1-6)]Man(b1-4)GlcNAc(b1-4)[Fuc(a1-6)]GlcNAc
Method in brief: as §1

[16] = molecular target: Gal(b1-4)GlcNAc(b1-3)Gal(b1-4)GlcNAc(b1-2)[Gal(b1-4)GlcNAc(b1-3)Gal(b1-4)GlcNAc(b1-6)]Man(a1-6)[Gal(b1-4)GlcNAc(b1-3)Gal(b1-4)GlcNAc(b1-2)Man(a1-3)]Man(b1-4)GlcNAc(b1-4)GlcNAc
Method in brief: as §1

[17] = molecular target: Gal(b1-4)GlcNAc(b1-3)Gal(b1-4)GlcNAc(b1-2)[Gal(b1-4)GlcNAc(b1-3)Gal(b1-4)GlcNAc(b1-6)]Man(a1-6)[Gal(b1-4)GlcNAc(b1-3)Gal(b1-4)GlcNAc(b1-2)Man(a1-3)]Man(b1-4)GlcNAc(b1-4)[Fuc(a1-6)]GlcNAc
Method in brief: as §1

[18] = molecular target: Gal(b1-4)GlcNAc(b1-3)Gal(b1-4)GlcNAc(b1-3)Gal(b1-4)GlcNAc
Method in brief: as §1

[19] = molecular target: Gal(b1-4)GlcNAc(b1-3)Gal(b1-4)GlcNAc(b1-3)Gal(b1-4)GlcNAc(b1-2)Man(a1-3)[Gal(b1-4)GlcNAc(b1-3)Gal(b1-4)GlcNAc(b1-3)Gal(b1-4)GlcNAc(b1-2)Man(a1-6)]Man(b1-4)GlcNAc(b1-4)GlcNAc
Method in brief: as §1

[20] = molecular target: Gal(b1-4)GlcNAc(b1-3)Gal(b1-4)GlcNAc(b1-3)Gal(b1-4)GlcNAc(b1-2)Man(a1-3)[Gal(b1-4)GlcNAc(b1-3)Gal(b1-4)GlcNAc(b1-3)Gal(b1-4)GlcNAc(b1-2)Man(a1-6)]Man(b1-4)GlcNAc(b1-4)[Fuc(a1-6)]GlcNAc
Method in brief: as §1

[21] = molecular target: Gal(b1-4)GlcNAc(b1-3)Gal(b1-4)GlcNAc(b1-3)Gal(b1-4)GlcNAc(b1-2)[Gal(b1-4)GlcNAc(b1-3)Gal(b1-4)GlcNAc(b1-3)Gal(b1-4)GlcNAc(b1-6)]Man(a1-6)[Gal(b1-4)GlcNAc(b1-3)Gal(b1-4)GlcNAc(b1-3)Gal(b1-4)GlcNAc(b1-2)Man(a1-3)]Man(b1-4)GlcNAc(b1-4)[Fuc(a1-6)]GlcNAc
Method in brief: as §1

[22] = molecular target: Gal(b1-4)GlcNAc(b1-3)Gal(b1-4)GlcNAc(b1-3)Gal(b1-4)GlcNAc(b1-3)Gal(b1-4)GlcNAc(b1-2)Man(a1-3)[Gal(b1-4)GlcNAc(b1-3)Gal(b1-4)GlcNAc(b1-3)Gal(b1-4)GlcNAc(b1-3)Gal(b1-4)GlcNAc(b1-2)Man(a1-6)]Man(b1-4)GlcNAc(b1-4)GlcNAc
Method in brief: as §1

B1: CLECb-Precomplexed (Mus musculus), P43025 (protein)
chain: MAKNGLVLCILVVSLLLDQTDGYPSRMKARKHSKRRVKAKDDDLKSQVEKLWREVNALKEMQALQTVCLRGTKVHKKCYLASEGLKHYHEANEDCISKGGTLVVPRNSDEINALRDYGKRSLPGVNDFWLGINDMVTEGKFLDVHGFAVSFLNWDRAQPSGGKRENCVLFSQSAQGKWSDEACRSSKRYICEFIIPTRTRPLEQKLISEEDLAANDILDYKDDDDKV
[1]
  glycan array binding signal (z-score): -0.062
[2]
  glycan array binding signal (z-score): -0.255
[3]
  glycan array binding signal (z-score): -0.178
[4]
  glycan array binding signal (z-score): -0.647
[5]
  glycan array binding signal (z-score): 0.265
[6]
  glycan array binding signal (z-score): 2.03
[7]
  glycan array binding signal (z-score): 0.809
[8]
  glycan array binding signal (z-score): -0.071
[9]
  glycan array binding signal (z-score): -0.178
[10]
  glycan array binding signal (z-score): -0.561
[11]
  glycan array binding signal (z-score): -0.397
[12]
  glycan array binding signal (z-score): -0.229
[13]
  glycan array binding signal (z-score): -0.226
[14]
  glycan array binding signal (z-score): 2.63
[15]
  glycan array binding signal (z-score): 2.01
[16]
  glycan array binding signal (z-score): 1.91
[17]
  glycan array binding signal (z-score): 0.499
[18]
  glycan array binding signal (z-score): -0.579
[19]
  glycan array binding signal (z-score): 0.939
[20]
  glycan array binding signal (z-score): -0.221
[21]
  glycan array binding signal (z-score): 3.07
[22]
  glycan array binding signal (z-score): -0.374
